In the supplement of paper PMC4967469:
pIC50: −log10 of the molar value. By IC50 is meant the dose at which the fit gives 50% viability; a limit (>, <) means that the fit lies beyond the doses tested. AUC sums up the same curve from the lowest dose to the 256-fold higher top dose: 1 means no effect, lower means more sensitive. For part of these data: Where the top dose is marked as inferred, it was calculated from the reported fits.

Columns and labels:
Test in all cases: Viability of human cancer cell lines after 72 h of drug (GDSC screen)
SL 0101-1 = compound: CC(=O)O[C@@H]1[C@@H](OC(C)=O)[C@@H](O)[C@H](Oc2c(-c3ccc(O)cc3)oc3cc(O)cc(O)c3c2=O)O[C@H]1C [SL 0101-1]; conditions: top dose 10 µM; top dose inferred
Description: (§1)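 Human cancer cell lines in 384-well plates, medium with 10% serum, drug for 72 h over a 256-fold dose range (nine 2-fold or five 4-fold steps up to the top dose). Adherent lines were fixed and stained with the nucleic acid dye Syto60, suspension lines read with resazurin; signal relative to control wells, capped at 0 and 100%. One two-parameter sigmoid per drug and line, fitted in a mixed model over all curves with the slope shared within a line.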

Temsirolimus = compound: CO[C@H]1C[C@@H]2CC[C@@H](C)[C@@](O)(O2)C(=O)C(=O)N2CCCC[C@H]2C(=O)O[C@H]([C@H](C)C[C@@H]2CC[C@@H](OC(=O)C(C)(CO)CO)[C@H](OC)C2)CC(=O)[C@H](C)/C=C(\C)[C@@H](O)[C@@H](OC)C(=O)[C@H](C)C[C@H](C)/C=C/C=C/C=C/1C [Temsirolimus]; conditions: top dose 0.2 µM
Description: as §1

XMD15-27 = compound: C=CC(=O)Nc1ccc(C(=O)c2sc(Nc3ccc(N4CCN(C)CC4)cc3OC)nc2N)cc1 [XMD15-27]; conditions: top dose 10.24 µM; top dose inferred
Description: as §1

Cell Line | AUC (SL 0101-1) | pIC50 (SL 0101-1) | AUC (Temsirolimus) | pIC50 (Temsirolimus) | AUC (XMD15-27) | pIC50 (XMD15-27)
ME-1 (acute myeloid leukaemia, suspension) | 0.971 | < 5.00 | 0.945 | < 6.70 | 0.989 | < 4.99
ME-180 (cervix, adherent) | 0.982 | < 5.00 | 0.588 | 7.66 | 0.967 | < 4.99
MEG-01 (chronic myeloid leukaemia, suspension) | 0.988 | < 5.00 | 0.867 | 6.79 | 0.983 | < 4.99
MEL-JUSO (melanoma, adherent) | 0.984 | < 5.00 | 0.623 | 7.55 | 0.956 | < 4.99
MES-SA (uterus, adherent) | 0.992 | < 5.00 | 0.827 | 7.01 | 0.992 | < 4.99
MFE-280 (endometrium, adherent) | 0.982 | < 5.00 | 0.964 | < 6.70 | 0.942 | < 4.99
MFE-296 (endometrium, adherent) | 0.948 | < 5.00 | 0.453 | 8.04 | 0.985 | < 4.99
MFH-ino (soft tissue, adherent) | 0.983 | < 5.00 | 0.341 | 8.38 | 0.983 | < 4.99
MFM-223 (breast, adherent) | 0.989 | < 5.00 | 0.799 | 7.02 | 0.983 | < 4.99
MG-63 (osteosarcoma, adherent) | 0.974 | < 5.00 | 0.71 | 7.26 | 0.984 | < 4.99
MHH-ES-1 (Ewing sarcoma, adherent) | 0.986 | < 5.00 | 0.452 | 8.03 | 0.952 | < 4.99
MHH-NB-11 (neuroblastoma, adherent) | 0.982 | < 5.00 | 0.965 | < 6.70 | 0.985 | < 4.99
MHH-PREB-1 (B-cell leukaemia, suspension) | 0.989 | < 5.00 | 0.496 | 7.91 | 0.988 | < 4.99
MIA-PaCa-2 (pancreas, adherent) | 0.977 | < 5.00 | 0.655 | 7.45 | 0.985 | < 4.99
MKN28 (stomach, adherent) | 0.984 | < 5.00 | 0.767 | 7.12 | 0.98 | < 4.99
ML-2 (acute myeloid leukaemia, suspension) | 0.989 | < 5.00 | 0.942 | < 6.70 | 0.977 | < 4.99
MLMA (hairy cell leukaemia, semi-adherent) | 0.954 | < 5.00 | 0.349 | 8.32 | 0.975 | < 4.99
MMAC-SF (melanoma, adherent) | 0.986 | < 5.00 | 0.93 | < 6.70 | 0.987 | < 4.99

Cell Line | AUC (SL 0101-1) | pIC50 (SL 0101-1) | AUC (Temsirolimus) | pIC50 (Temsirolimus) | AUC (XMD15-27) | pIC50 (XMD15-27)
MN-60 (B-cell leukaemia, suspension) | 0.987 | < 5.00 | 0.865 | 6.73 | 0.988 | < 4.99
MOG-G-CCM (glioma, adherent) | 0.982 | < 5.00 | 0.529 | 7.82 | 0.964 | < 4.99
MOG-G-UVW (glioma, adherent) | 0.977 | < 5.00 | 0.6 | 7.63 | 0.987 | < 4.99
MOLP-8 (myeloma, suspension) | 0.985 | < 5.00 | 0.631 | 7.55 | 0.958 | < 4.99
MOLT-4 (lymphoblastic leukaemia, suspension) | 0.95 | < 5.00 | 0.364 | 8.24 | 0.981 | < 4.99
MOLT-13 (T-cell lymphoblastic leukaemia, suspension) | 0.985 | < 5.00 | 0.987 | < 6.70 | 0.95 | < 4.99
MONO-MAC-6 (acute myeloid leukaemia, suspension) | 0.956 | < 5.00 | 0.802 | 6.98 | 0.963 | < 4.99
MPP-89 (mesothelioma, adherent) | 0.976 | < 5.00 | 0.674 | 7.35 | 0.982 | < 4.99
MRK-nu-1 (breast, suspension) | 0.99 | < 5.00 | 0.885 | 6.73 | 0.99 | < 4.99
MS-1 (small cell lung carcinoma, suspension) | 0.99 | < 5.00 | 0.957 | < 6.70 | 0.988 | < 4.99
MSTO-211H (mesothelioma, adherent) | 0.975 | < 5.00 | 0.666 | 7.46 | 0.991 | < 4.99
MV-4-11 (leukaemia, suspension) | 0.958 | < 5.00 | 0.774 | 7.19 | 0.918 | < 4.99
MY-M12 (leukaemia, suspension) | 0.981 | < 5.00 | 0.486 | 7.94 | 0.971 | < 4.99
MZ1-PC (pancreas, adherent) | 0.911 | < 5.00 | 0.97 | < 6.70 | 0.951 | < 4.99
MZ2-MEL (melanoma, adherent) | 0.975 | < 5.00 | 0.259 | 8.65 | 0.983 | < 4.99
Mo-T (hairy cell leukaemia, suspension) | 0.98 | < 5.00 | 0.737 | 7.22 | 0.958 | < 4.99
NALM-6 (B-cell leukaemia, suspension) | 0.989 | < 5.00 | 0.928 | < 6.70 | 0.88 | 5.12
